Laboratory results taken from PubChem BioAssay AID1347120 (National Center for Advancing Translational Sciences (NCATS), 2019).
Out of some 390,000 compounds screened, about 930 (0.24%) were called active. The shares of active, inactive and inconclusive entries below differ from those in the screen. The call rests on the fitted dose curve; in most records, active means well fitted activation curve with a large enough effect; inconclusive means small, poorly fitted or top-dose-only effect; inactive means no such curve, though single readings can be large or run the other way. Where the call is inconclusive, the potency comes from a doubtful curve fit.

Test: qHTS for Suppressors of FUS Proteinopathy: Primary screen using FUS-linked yeast assay; further: nearly all actives have a fitted effect of over 55% in size
Conditions: S. cerevisiae FUS-expressing, OD600, 24 h; Potency: growth rescue; series mostly up to 76.6 µM
In short: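 FUS-expressing yeast, raffinose-pregrown, induced in 2% galactose minimal medium at OD 0.005; compounds in a dilution series, 24hr at 30C. Growth restoration read as absorbance at 600 nm. CP55940 positive control, DMSO negative.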
Potency means the concentration at half of the fitted maximal effect; tags describe the fitted curve by direction and shape.

| Compound | Potency |
| --- | --- |
| COCCN(CC(=O)Nc1cccc(C)c1C)C(=O)c1cc(-c2cccs2)nn1-c1ccccc1 | inconclusive: 14.1 µM [activator, partial curve] |
| CC(C)CCNC(=O)C1CCN(c2cncnc2)CC1 | inactive |
| Cc1csc2nc(-c3cccc(NC(=O)c4ccccc4Cl)c3)cn12 | inconclusive: 50.1 µM [activator, single point] |
| CN(C)/C=N/c1ncc(C(=O)c2ccc(-c3ccccc3)cc2)s1 | inconclusive: 44.7 µM [activator, single point] |
| CCC(c1c[nH]c2ccccc12)c1cn(C)c2ccccc12 (stereo not given) | inactive |
| Cc1cc2ccccc2n2c(SCC(=O)Nc3ccc(S(=O)(=O)N4CCC(C)CC4)cc3)nnc12 | inactive |
| Cc1cc(C)n(-c2ccc(C(=O)OCC(=O)Nc3ccc(Cl)c(S(=O)(=O)N(C)C)c3)cc2)n1 | inconclusive: 22.4 µM [activator, partial curve, poor fit] |
| COc1cc(/C=N/Nc2snc(SC)c2C#N)cc(OC)c1OC | inconclusive: 10 µM [activator, partial curve, poor fit] |
| CCOC(=O)[C@]12CCCC=C1N(Cc1ccccc1)C(=O)[C@H](CC(=O)NCC13CC4CC(CC(C4)C1)C3)C2 | active: 12.6 µM |
| Cc1ccc(CN2C(=O)C(O)(c3c[nH]c4ccccc34)c3cc(Cl)ccc32)cc1 (stereo not given) | inconclusive: 31.6 µM [activator, single point] |
| CCc1nnc(NC(=O)c2nn(-c3ccccc3)nc2C)s1 | inactive |
| Cc1ccc(NC(=O)C(OC(=O)c2cnc(C)cn2)c2ccccc2)c([N+](=O)[O-])c1 (stereo not given) | inconclusive: 50.1 µM [activator, single point] |
| CCOC(=O)[C@@H]1[C@H]2COc3ccc(Br)cc3[C@H]2N2C(=O)N(c3ccc(C)cc3)C(=O)[C@]12C | active: 22.4 µM |
| C=CCn1c(=O)c2c(C)c(C)sc2n2c(Nc3ccccc3)nnc12 | inconclusive: 10 µM [activator, partial curve, poor fit] |
| CCOC(=O)C(CC)Sc1nnc2c3cc(C)ccc3n(C)c2n1 (stereo not given) | inconclusive: 35.5 µM [activator, partial curve, poor fit] |
| COCCNC(=O)c1c(C)oc2nc(C)nc(N3CCOCC3)c12 | inactive |
| CCOCCOC(=O)C1=C(C)Nc2ccc(C)cc2S1 | inconclusive: 50.1 µM [activator, partial curve, poor fit] |
| CCc1nnc(NC(=O)c2cc(S(=O)(=O)N3CCN(c4ccccc4)CC3)ccc2Cl)s1 | inconclusive: 56.2 µM [activator, partial curve, poor fit] |
| Cc1ccccc1-c1cc(C(=O)NCc2cccc(Br)c2)nn1CC1CC(c2cccc([N+](=O)[O-])c2)=NO1 (stereo not given) | inconclusive: 11.2 µM [activator, partial curve] |
| Cc1ccccc1N(CC(=O)Nc1ccccc1C(=O)NCc1ccco1)S(=O)(=O)c1ccccc1 | inconclusive: 14.1 µM [activator, partial curve] |

| Compound | Potency |
| --- | --- |
| O=C(NCc1ccc(F)cc1)c1cc(C2CCCCN2C(=O)c2ccc3c(c2)CCO3)on1 (stereo not given) | inconclusive: 35.5 µM [activator, single point] |
| COC(=O)C1CN(Cc2cn(Cc3ccc(Cl)cc3)nn2)CCS(=O)(=O)N1Cc1ccc(OC)cc1 (stereo not given) | inconclusive: 35.5 µM [activator, single point] |
| CN(Cc1ccccc1)C(=O)Cn1nnc(-c2ccccc2)c1COc1ccc2ccccc2c1 | inconclusive: 28.2 µM [activator, partial curve] |
| Cc1ccccc1S(=O)(=O)NC(=O)C1(C)CCN1C(=O)CC(c1ccccc1)c1ccccc1 (stereo not given) | inconclusive: 39.8 µM [activator, single point] |
| C[C@@H]1CN([C@H](C)CO)C(=O)CCCn2nncc2CO[C@@H]1CN(C)C(=O)Nc1cccc2ccccc12 | inactive |
| COc1ccccc1CNC(=O)c1cc(-c2ccccc2)nn1CC1CC(c2cccc([N+](=O)[O-])c2)=NO1 (stereo not given) | inconclusive: 50.1 µM [activator, single point] |
| COCCNC(=S)N1CCC2CC1c1cc(-c3ccc4c(c3)OCO4)ccc12 (stereo not given) | inconclusive: 20 µM [activator, partial curve] |
| CC(C)C(NC(=O)OCc1ccccc1)C(=O)OCC(=O)NCc1ccco1 (stereo not given) | inconclusive: 2.51 µM [activator, full curve] |
| Cn1cc(S(=O)(=O)N2CCCCCC2)cc1C(=O)N1CCN(c2cccc(Cl)c2)CC1 | inconclusive: 25.1 µM [activator, single point] |
| CC(C)(C)c1ccc(CC(=O)N2CCC2(C)C(=O)Nc2ccc3[nH]ncc3c2)cc1 (stereo not given) | inconclusive: 17.8 µM [activator, partial curve] |
| CCc1ccc(NC(=O)C2CCN(S(=O)(=O)c3ccc4[nH]c5c(c4c3)CCCCC5)CC2)cc1 | inconclusive: 28.2 µM [activator, partial curve] |
| Cc1nc(-c2ccccc2)sc1-c1ccnn1C | inactive |
| Cc1ccc(CNS(=O)(=O)c2ccc(C)s2)cc1 | inactive |
| CCn1cc(C(=O)N2CCN(c3ccccc3F)CC2)c(=O)c2cc(S(=O)(=O)N(C)C3CCCCC3)ccc21 | inactive |
| Cc1cccc(NC(=O)c2nc(S(C)(=O)=O)ncc2Cl)c1 | inactive |
| Cc1ccc(-n2c(C)cc(/C=N/Nc3ccc([N+](=O)[O-])cn3)c2C)c(C)c1 | inconclusive: 12.6 µM [activator, partial curve, poor fit] |
| Cc1ccc(N2CCN(C(=O)c3ccccc3NC(=O)c3ccccc3C(=O)O)CC2)cc1 | inconclusive: 22.4 µM [activator, partial curve, poor fit] |
| Cc1c(C(=O)NCc2ccccc2C(F)(F)F)sc(=O)n1Cc1ccc2ccccc2c1 | inconclusive: 39.8 µM [activator, single point] |
| CCOC(=O)Cc1csc(SCC(=O)Nc2ccc3[nH]c(=O)[nH]c3c2)n1 | inactive |
| O=C(C1CCCN1S(=O)(=O)c1ccc([N+](=O)[O-])cc1)N1CCN(c2ccccc2)CC1 (stereo not given) | inactive |
